Reference: the RNAGym collection of RNA variant scans (doi:10.1093/nar/gkz1192)
The source gives no read counts; variants with many changes may rest on few reads.

B1: CPEB3 Ribozyme (parent)
chain: UAACAGGGGGCCACAGCAGAAGCGUUCACGUCGCAGCCCCUGUCAGAUUCUGGUGAAUCUGCGAAUUCUGCUGUAUAUCUC

Variants of: B1
Assay: self-cleavage, relative activity (ratio to wild type); higher = more cleavage; in vitro, sequencing
How it was run: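 Relative activity compares each variant's cleaved/total read fraction with that of the unmutated ribozyme. To get these fractions, barcoded CPEB3 ribozyme libraries from rounds of error-prone PCR were transcribed with T7 RNA polymerase for 5 hours at 37°C and then given 15 min of DNase I treatment before EDTA was added. The RNAs were reverse transcribed with template switching and sequenced on Illumina, and DNA sequencing linked barcodes to variants. A minimum of 5 reads applied, and three batches were averaged.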
Variant U49A U60C G63A A64C has a self-cleavage of 0.13.
For U49A U60C U67C, the self-cleavage was 0.41.
For U49A U60C U69A, the self-cleavage was 0.18.
Work on U49A U60C U74A yielded a self-cleavage of 0.3.
U49A U66C U78C showed a self-cleavage of 0.15.
Variant U49A U67A U78C has a self-cleavage of 0.23.
U49A U67C A77U U78C C79U showed a self-cleavage of 0.21.
In the case of U49A U67C U69A U76C, the self-cleavage is reported as 0.47.
Variant U49A U69A U78A C81U has a self-cleavage of 0.32.
In the case of U49A U69C U76A, the self-cleavage is reported as 0.47.
U49A U72C U74A showed a self-cleavage of 1.22.
Work on U49A U74A U78C yielded a self-cleavage of 1.03.
U49A U76C A77U gave a self-cleavage of 0.99.
With U49C A56G A57U the self-cleavage was 0.37.
For U49C A56G A64G U67A U69A, the self-cleavage was 0.07.
For U49C A56G A64U, the self-cleavage was 0.3.
U49C A56G A65G gave a self-cleavage of 0.31.
Work on U49C A56G A75G U78A yielded a self-cleavage of 1.06.
Work on U49C A56G G61A yielded a self-cleavage of 0.31.
U49C A56G U58C U69A A75G gave a self-cleavage of 0.15.
For U49C A56G U67A U69A A77U U78C, the self-cleavage was 0.53.
With U49C A56G U72C U80C the self-cleavage was 1.28.
With U49C A56G U80C the self-cleavage was 1.07.
For U49C A56U U60A, the self-cleavage was 0.1.
U49C A57G U58A U67A U72C showed a self-cleavage of 0.08.
Variant U49C A57G U69A has a self-cleavage of 0.32.
U49C A57U G61A showed a self-cleavage of 0.17.
With U49C A57U G61A U76C U80C the self-cleavage was 0.12.
In the case of U49C A57U G61A U80A, the self-cleavage is reported as 0.16.
With U49C A57U U76C U78C the self-cleavage was 0.18.
With U49C A64G U67C U69A the self-cleavage was 0.15.
Variant U49C A64G U72C has a self-cleavage of 0.34.
U49C A64U A75U gave a self-cleavage of 0.1.
U49C A65G U72A gave a self-cleavage of 0.1.
Work on U49C A65G U72C yielded a self-cleavage of 0.29.
Variant U49C A75U U80C has a self-cleavage of 0.45.
Variant U49C C50A A64U has a self-cleavage of 0.32.
Work on U49C C62A U72G U78C yielded a self-cleavage of 0.15.
In the case of U49C C62U U74C, the self-cleavage is reported as 0.1.
Variant U49C G52A A56U U74C A75U has a self-cleavage of 1.04.
Work on U49C G52A A65G U72C yielded a self-cleavage of 0.24.
Variant U49C G52A U54C U72C U78C has a self-cleavage of 0.55.
With U49C G52A U66C the self-cleavage was 0.12.
For U49C G52C A65G U66C U76C, the self-cleavage was 0.26.
For U49C G53A U80C, the self-cleavage was 0.41.
U49C G53C U80A showed a self-cleavage of 0.6.
Variant U49C G53U U60A G63U has a self-cleavage of 0.12.
Work on U49C G53U U72A yielded a self-cleavage of 0.36.
Work on U49C G55A A56U A64U A77G yielded a self-cleavage of 0.07.
U49C G55U U72C gave a self-cleavage of 0.2.
In the case of U49C G63A U66A, the self-cleavage is reported as 0.4.
Variant U49C U51A A64G U78A U80A has a self-cleavage of 0.34.
U49C U51A C59G A64G gave a self-cleavage of 0.16.
In the case of U49C U51A C81U, the self-cleavage is reported as 0.63.
Variant U49C U51A G53C U66C U72A has a self-cleavage of 0.09.
Variant U49C U51A G61C U72C has a self-cleavage of 0.27.
For U49C U51A U54A U80A, the self-cleavage was 0.27.
Work on U49C U51A U72C yielded a self-cleavage of 0.56.
Work on U49C U51A U76A yielded a self-cleavage of 0.51.
In the case of U49C U51C A56U, the self-cleavage is reported as 0.26.
U49C U51C A77G gave a self-cleavage of 0.25.
U49C U51C G63C showed a self-cleavage of 0.52.
With U49C U51C U54C U60C the self-cleavage was 0.05.
For U49C U51C U69C U78C U80C, the self-cleavage was 0.13.
Variant U49C U51C U72G A77U has a self-cleavage of 0.32.
For U49C U51C U76C U80A, the self-cleavage was 0.08.
U49C U54A A57G G61U gave a self-cleavage of 0.14.
U49C U54A A64U gave a self-cleavage of 0.1.
Variant U49C U54A U66C U67C has a self-cleavage of 0.41.
Variant U49C U54A U67C has a self-cleavage of 0.4.
In the case of U49C U54A U67C U72C, the self-cleavage is reported as 0.24.
For U49C U54A U72C U78C, the self-cleavage was 0.36.
Work on U49C U54C A56G A64U A65G yielded a self-cleavage of 0.13.
In the case of U49C U54C A56U, the self-cleavage is reported as 0.3.
With U49C U54C A65G U80A the self-cleavage was 0.11.
Variant U49C U54C U58A U72A has a self-cleavage of 0.13.
U49C U54C U67C showed a self-cleavage of 0.25.
Work on U49C U54C U72C yielded a self-cleavage of 0.21.
Work on U49C U58A A64G yielded a self-cleavage of 0.13.
Variant U49C U58C G73A has a self-cleavage of 0.27.
For U49C U58C U60A, the self-cleavage was 0.16.
In the case of U49C U58C U60C, the self-cleavage is reported as 0.07.
U49C U58C U60C A75U U80C showed a self-cleavage of 0.1.
